According to the supplement of paper PMC2702839:
Structures can show the parent of a compound that is named as a salt. The list shows a part of the results.

Tested on: Schistosoma mansoni schistosomula
Test: phenotypic hit in primary schistosomula screen (any phenotype vs DMSO control) (binary (1 = hit, 0 = no phenotype)); higher = active (phenotype induced)
Settings: 1 µM; time (d): 7

Compound | phenotypic hit
CCOC(=O)C1=C(C)NC(C)=C(C(=O)OC)C1c1cccc([N+](=O)[O-])c1 (configuration not stated) [Nitrendipine] | inactive: 0
CC(=O)O[C@H]1C[C@@H](OC(C)=O)C(C)(C)C2CC(=O)[C@]3(C)C(CC[C@@]4(C)[C@H](C(=O)O)OC(=O)C5OC543)[C@]21C (some centres not stated) [deacetoxy (7)-7-oxokhivorinic acid] | inactive: 0
CC1(C)OCC(C2OC(=O)C(O)=C2O)O1 (configuration not stated) [ascorbic acid acetonide] | inactive: 0
NCC1OC(OC2C(N)CC(N)C(OC3OC(CO)C(O)C(N)C3O)C2O)C(N)C(O)C1O (configuration not stated) [becanamycin sulfate] | inactive: 0
CCn1cc(C(=O)O)c(=O)c2cc(F)c(N3CCNCC3)cc21 [norfloxacin] | inactive: 0
CC(=O)O[C@H]1CC[C@]2(C)[C@H]3C(=O)C=C4[C@@H]5[C@@H](C)[C@H](C)CC[C@]5(C(=O)O)CC[C@@]4(C)[C@]3(C)CC[C@H]2C1(C)C [11-oxoursolic acid acetate] | inactive: 0
CC(C)=CCc1c(O)cc2occ(-c3ccc4c(c3)OCO4)c(=O)c2c1O [derrubone] | inactive: 0
C=C1[C@H]2CC[C@@]3(C)[C@H](c4ccoc4)OC(=O)C[C@]13O[C@H]1C[C@H](O)C(C)(C)[C@H](CC(=O)OC)[C@]12C [3-deoxy-3beta-hydroxyangolensic acid methyl ester] | inactive: 0
CC(CN1c2ccccc2Sc2ccccc21)N(C)C (configuration not stated) [Promethazine hydrochloride] | inactive: 0
NS(=O)(=O)c1cc2c(cc1C(F)(F)F)NC(Cc1ccccc1)NS2(=O)=O (configuration not stated) [bendrofumethiazide] | inactive: 0
CC(C)[C@@H]1CC[C@@H](C)C[C@H]1OC(=O)c1ccccc1 [menthyl benzoate] | inactive: 0
COc1cc(N)c(Cl)cc1C(=O)NC1CCN(Cc2ccccc2)CC1 [clebopride maleate] | inactive: 0
S=P(N1CC1)(N1CC1)N1CC1 [thiotepa] | inactive: 0
CC(=O)O[C@H]1CC[C@]2(C)[C@H]3CC=C4[C@@H]5CC(C)(C)CC[C@]5(C(=O)O)CC[C@@]4(C)[C@]3(C)CC[C@H]2C1(C)C [oleanolic acid acetate] | inactive: 0
Cc1cc(O)cc(=O)o1 [4-hydroxy-6-methylpyran-2-one] | inactive: 0
COC(=O)[C@@H]1OC(=O)C2OC23[C@@]1(C)CCC1[C@]2(C)C(C[C@@H](O)[C@]13C)C(C)(C)[C@H](OC(C)=O)C[C@@H]2OC(C)=O (some centres not stated) [desacetyl (7)khivorinic acid, methyl ester] | inactive: 0
COc1c(O)cc2c(c1O)[C@@H]1O[C@H](CO)[C@@H](O)[C@H](O)[C@H]1OC2=O [bergenin] | inactive: 0
CC(=O)Oc1cccc(C(=O)O)c1OC(C)=O [dipyrocetyl] | inactive: 0
CC1OC1P(=O)(O)O (configuration not stated) [fosphomycin] | inactive: 0
CC(C)[C@H]1CC[C@H](C(=O)N[C@H](Cc2ccccc2)C(=O)O)CC1 [nateglinide] | inactive: 0
COC(=O)/C(=C1/OC(=O)C(c2ccccc2)=C1O)c1ccccc1 [vulpinic acid] | inactive: 0

Compound | phenotypic hit
COc1cc(-c2coc3cc(OCc4ccccc4)c(OC)c(O)c3c2=O)cc(O)c1OC [irigenin, 7-benzyl ether] | inactive: 0
COc1ccccc1OCCNCC(O)COc1cccc2[nH]c3ccccc3c12 (configuration not stated) [carvedilol] | inactive: 0
CC1CCc2cc(F)cc3c(=O)c(C(=O)O)cn1c23 (configuration not stated) [flumequine] | inactive: 0
CCCCOc1ccc(OCCCN2CCOCC2)cc1 [pramoxine hydrochloride] | inactive: 0
CCCOc1ccc2nc(NC(=O)OC)[nH]c2c1 [oxybendazole] | inactive: 0
CC(CCc1ccc(O)cc1)NCCc1ccc(O)c(O)c1 (configuration not stated) [dobutamine hydrochloride] | inactive: 0
CCOc1nc2cccc(C(=O)OC(C)OC(=O)OC3CCCCC3)c2n1Cc1ccc(-c2ccccc2-c2nn[nH]n2)cc1 (configuration not stated) [candesartan cilextil] | inactive: 0
Nc1ncnc2c1ncn2[C@H]1C[C@H](O)[C@@H](CO)O1 [deoxyadenosine] | inactive: 0
Nc1ccc(S(N)(=O)=O)cc1 [sulfanilamide] | inactive: 0
COc1ccc2c(c1)OCC(Cc1ccc(OC)c(OC)c1)C2=O (configuration not stated) [deoxysappanone b trimethyl ether] | inactive: 0
CC(=O)O[C@H](CC(=O)[O-])C[N+](C)(C)C [acetylcarnitine] | inactive: 0
COc1ccc([C@H]2Oc3cc(OC)cc(OC)c3C[C@H]2O)cc1 [epiafzelechin trimethyl ether] | inactive: 0
CC[C@]12CCCN3CCc4c(n(c5ccccc45)[C@@](O)(C(=O)OC)C1)[C@@H]32 [vincamine] | inactive: 0
COc1ccc(CCN(C)CCCC(C#N)(c2ccc(OC)c(OC)c2)C(C)C)cc1OC (racemic) [(±)-Verapamil hydrochloride] | active: 1
CCCCCCCCCCCCCCCC[N+](C)(C)C [cetrimonium bromide] | active: 1
CNC1(C)C2CCC(C2)C1(C)C (configuration not stated) [Mecamylamine hydrochloride] | inactive: 0
C[C@@H]1CC2C3C[C@H](F)C4=CC(=O)C=C[C@]4(C)[C@@]3(F)[C@@H](O)C[C@]2(C)[C@@]1(O)C(=O)COC(=O)C(C)(C)C (some centres not stated) [flumethazone pivalate] | inactive: 0
Nc1nccs1 [aminothiazole] | inactive: 0
CC(=O)OC1CC(OC(C)=O)C2(C)C(CC(OC(C)=O)C3(C)C4=CC(=O)OC(=O)C4(C)CCC32)C1(C)C (configuration not stated) [desfuranyl-17-oxokhivorin] | active: 1
CCCc1nc(C(C)(C)O)c(C(=O)OCc2oc(=O)oc2C)n1Cc1ccc(-c2ccccc2-c2nnn[nH]2)cc1 [olmesartan medoxomil] | inactive: 0
Cn1c(=O)c2c(ncn2CC(O)CO)n(C)c1=O (configuration not stated) [dyphylline] | inactive: 0
